Consider 71 molecules from the supplement of paper PMC9588766.

Each structure is given as a SMILES string. Where a name gives a salt, the structure may show the parent alone. ± gives the standard deviation of the averaged measurements. Whole data set: some 2,000 compounds, median “cell viability relative to DMSO control (compound alone)” near 0.98, cut for the lowest 2% near 0.23. The list shows a part of the results.

The subject of the assay is PDC-DUC18828. Kind of assay: cell viability relative to DMSO control (compound alone) (fraction); PDC-DUC18828 is a patient-derived cholangiocarcinoma cell line; higher = less growth inhibition. The following applies: 1 µM; 72 h. The procedure: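 Selleck Bioactive library screen in the patient-derived FGFR2-G3BP2 fusion-positive ICC cell line PDC-DUC18828 (500 cells/well). Each compound was tested at 1 uM alone, in triplicate, for 72 h. Viability was read by CellTiter-Glo and normalised to plate DMSO controls.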
Turning to `O=C(c1ccc(/C=C/c2n[nH]c3ccccc23)cc1)N1CCNCC1`, the cell viability amounted to 0.878 ± 0.035.

On to `CS(=O)(=O)c1ccc(-c2cnc(N)c(C(=O)Nc3ccccc3)n2)cc1`, for which the cell viability stood at 0.975 ± 0.066.

Consider `O=C(Oc1ccccc1C(=O)O)c1ccccc1O` [Sasapyrine], for which the cell viability stood at 1.09 ± 0.053.

`COc1c(C)c2c(c(O)c1C/C=C(\C)CCC(=O)O)C(=O)OC2` [Mycophenolic acid]: the cell viability is 0.501 ± 0.018.

`C[C@H]1O[C@@H](n2cc(F)c(=O)[nH]c2=O)[C@H](O)[C@@H]1O` [Doxifluridine] displayed a cell viability of 1.02 ± 0.042.

Molecule `CC(C)(C)c1nc(-c2cccc(NS(=O)(=O)c3c(F)cccc3F)c2F)c(-c2ccnc(N)n2)s1` displayed a cell viability of 0.847 ± 0.028.

`CC1(C)CC[C@]2(C(=O)O)CC[C@]3(C)C(=CC[C@@H]4[C@@]5(C)CC[C@H](O)C(C)(C)[C@@H]5CC[C@]43C)[C@@H]2C1` [Oleanolic Acid] yielded a cell viability of 0.987 ± 0.043.

In turn, `O=C(O)CCCCC(CCSCc1ccccc1)SCc1ccccc1` (stereo unspecified) gave a cell viability of 0.949 ± 0.028.

`O=c1c(-c2ccc(O)cc2)coc2cc(O)ccc12` [Daidzein] showed a cell viability of 1.01 ± 0.043.

On to `COc1cccc(Nc2c(C(N)=O)cnc3c(C)cc(S(=O)(=O)c4cccc(C(=O)N(C)C)c4)cc23)c1`, for which the cell viability was determined as 0.957 ± 0.042.

Molecule `Nc1c(CC(=O)O)cccc1C(=O)c1ccc(Br)cc1` [Bromfenac Sodium] gave a cell viability of 0.998 ± 0.035.

For the molecule `CC1(C)O[C@@H]2C[C@H]3[C@@H]4CCC5=CC(=O)CC[C@]5(C)[C@@]4(F)[C@@H](O)C[C@]3(C)[C@]2(C(=O)CCl)O1` [Halcinonide], the cell viability amounted to 0.97 ± 0.043.

Regarding `C[C@]12C=CC(=O)C=C1CC[C@H]1[C@@H]3C[C@@H](O)[C@](O)(C(=O)CO)[C@@]3(C)C[C@H](O)[C@@]12F` [Triamcinolone], the cell viability is 0.924 ± 0.048.

Molecule `N#Cc1ccc(COC[C@H]2O[C@@H](n3c(NCc4ccc(Cl)c(Cl)c4)nc4c(N)ncnc43)[C@H](O)[C@@H]2O)cc1` gave a cell viability of 0.853 ± 0.0064.

In turn, `C[C@@H]1O[C@@H](OC[C@H]2O[C@@H](Oc3c(-c4ccc(OCCO)c(OCCO)c4)oc4cc(OCCO)cc(O)c4c3=O)[C@H](O)[C@@H](O)[C@@H]2O)[C@H](O)[C@H](O)[C@H]1O` [Troxerutin] came in with a cell viability of 0.9405 ± 0.0035.

In turn, `CCN(CC)C(=O)/C(C#N)=C/c1cc(O)c(O)c([N+](=O)[O-])c1` [Entacapone] registered a cell viability of 1.02 ± 0.022.

The molecule `C[C@@H](O)[C@H]1C(=O)N2C(C(=O)O)=C(S[C@@H]3CN[C@H](C(=O)N(C)C)C3)[C@H](C)[C@H]12` [Meropenem] registered a cell viability of 1.07 ± 0.022.

Turning to `Cn1nnc(-c2ccc3c(c2)[nH]c2nc(Cc4ccccc4)nc(NC4CCC(N)CC4)c23)n1` (stereo unspecified), the cell viability turned out to be 0.855 ± 0.032.

In turn, `CC(=O)O[C@H]1C[C@@H]2CC[C@@H]3[C@H](CC[C@@]4(C)[C@H]3C[C@H]([N+]3(C)CCCCC3)[C@@H]4OC(C)=O)[C@@]2(C)C[C@@H]1N1CCCCC1` [Vecuronium Bromide] came in with a cell viability of 1.03 ± 0.038.

On to `CN(C)Cc1cccc(N=C(c2ccccc2)c2c(O)[nH]c3cc(C(=O)N(C)C)ccc23)c1`, for which the cell viability was determined as 0.976 ± 0.026.

In turn, `OC(c1cc(C(F)(F)F)nc2c(C(F)(F)F)cccc12)C1CCCCN1` (stereo unspecified) [Mefloquine HCl] came in with a cell viability of 1.04 ± 0.07.

As for `COc1ccc2c(c1)c(CC(=O)N1CCOCC1)c(C)n2C(=O)c1ccc(Cl)cc1`, the cell viability is 0.93 ± 0.052.

On to `Cc1coc2c1C(=O)C(=O)c1c-2ccc2c1CCCC2(C)C` [Tanshinone IIA], for which the cell viability worked out at 1.06 ± 0.068.

For `CC[C@H]1OC(=O)C[C@@H](O)[C@H](C)[C@@H](O[C@@H]2O[C@H](C)[C@@H](O)[C@H](N(C)C)[C@H]2O)[C@@H](CCN2C[C@H](C)C[C@H](C)C2)C[C@@H](C)C(=O)/C=C/C(C)=C/[C@@H]1CO[C@@H]1O[C@H](C)[C@@H](O)[C@@H](OC)[C@H]1OC` [Tilmicosin], the cell viability was 0.998 ± 0.021.

In turn, `CCc1c(O)cc(O)c(C(=O)c2ccc(OCCN3CCOCC3)c(OC)c2)c1CC(=O)N(CCOC)CCOC` had a cell viability of 0.789 ± 0.069.

Take `CNCCCC12CCC(c3ccccc31)c1ccccc12` [Maprotiline HCl]: the cell viability was found to be 1.02 ± 0.038.

`CC(=O)N[C@@H](CS)C(=O)O` [Acetylcysteine] yielded a cell viability of 1.08 ± 0.021.

Regarding `C[C@]1(c2nc3c(C(N)=O)cccc3[nH]2)CCCN1` [Veliparib (ABT-888)], the cell viability stood at 1.04 ± 0.068.

Consider `O=C(O)Cc1cccc(OCCCN(Cc2cccc(C(F)(F)F)c2Cl)CC(c2ccccc2)c2ccccc2)c1`, for which the cell viability worked out at 1.04 ± 0.084.

As for `O=c1cc(-c2ccccc2)oc2cc(O)c(O)c(O)c12` [Baicalein], the cell viability was found to be 1.08 ± 0.054.

`COc1cc(C2Oc3cc([C@H]4Oc5cc(O)cc(O)c5C(=O)[C@@H]4O)ccc3OC2CO)ccc1O` (stereo partly specified) [Silymarin] returned a cell viability of 0.981 ± 0.026.

`COc1cc(C2Oc3cc([C@H]4Oc5cc(O)cc(O)c5C(=O)[C@@H]4O)ccc3OC2CO)ccc1O` (stereo partly specified) [Silibinin]: the cell viability amounted to 0.918 ± 0.036.

`CCN(CC)CCOC(=O)c1ccc(N)cc1` [Procaine HCl] gave a cell viability of 0.942 ± 0.031.

Consider `Clc1ccc(C(Cn2ccnc2)OCc2ccc(Sc3ccccc3)cc2)c(Cl)c1` (stereo unspecified) [Fenticonazole Nitrate], for which the cell viability stood at 1.03 ± 0.056.

`CC[C@H](C)C(=O)O[C@H]1C[C@@H](C)C=C2C=C[C@H](C)[C@H](CC[C@@H]3C[C@@H](O)CC(=O)O3)[C@H]21` [Lovastatin] had a cell viability of 0.96 ± 0.041.

`COc1cccc2cc(-c3nc([C@H]4CC[C@H](C(=O)O)CC4)n4ncnc(N)c34)[nH]c12` came in with a cell viability of 0.328 ± 0.019.

The molecule `O=C1CCC[C@@H]2[C@H]3CCC[N+]4([O-])CCC[C@@H](CN12)[C@@H]34` (stereo partly specified) [Oxymatrine] registered a cell viability of 1.03 ± 0.018.

With `CC(C)n1c(/C=C/C(O)CC(O)CC(=O)O)c(-c2ccc(F)cc2)c2ccccc21` (stereo unspecified) [Fluvastatin Sodium], the cell viability turned out to be 0.669 ± 0.019.

With `O=c1ccn([C@@H]2O[C@H](CO)[C@@H](O)[C@H]2O)c(=O)[nH]1` [Uridine], the cell viability amounted to 1.03 ± 0.034.

Regarding `CCCCNc1cc(C(=O)O)cc(S(N)(=O)=O)c1Oc1ccccc1` [Bumetanide], the cell viability amounted to 1 ± 0.015.

`C[C@H](Cn1cnc2c(N)ncnc21)OCP(=O)(O)O` [Tenofovir] had a cell viability of 0.999 ± 0.078.

`COC(=O)N[C@H](C(=O)N[C@@H](Cc1ccccc1)[C@@H](O)CN(Cc1ccc(-c2ccccn2)cc1)NC(=O)[C@@H](NC(=O)OC)C(C)(C)C)C(C)(C)C` [Atazanavir Sulfate]: the cell viability was 1.03 ± 0.027.

In the case of `CNC[C@H](O)[C@@H](O)[C@H](O)[C@H](O)CO` [Meglumine], the cell viability amounted to 0.988 ± 0.044.

Regarding `COC(=O)Nc1ccc(-c2nc(N3CCOCC3)c3cnn(C4CCN(C(=O)OC)CC4)c3n2)cc1`, the cell viability is 0.957 ± 0.031.

In the case of `NC(=O)OCC(COC(N)=O)c1ccccc1` [Felbamate], the cell viability was determined as 1.04 ± 0.059.

`CCC[S+]([O-])c1ccc2[nH]c(NC(=O)OC)nc2c1` (stereo unspecified) [Albendazole Oxide] returned a cell viability of 0.924 ± 0.014.

The molecule `Cc1ccnc(NS(=O)(=O)c2ccc(N)cc2)n1` [Sulfamerazine] showed a cell viability of 1.05 ± 0.018.

In turn, `Nc1[nH]nc2nnc(-c3c(-c4ccccc4)nn4ccccc34)cc12` returned a cell viability of 0.981 ± 0.077.

In turn, `COc1cc(N2CCC(N)CC2)ccc1Nc1ncc(Cl)c(-c2c[nH]c3ccccc23)n1` gave a cell viability of 0.704 ± 0.063.

`CCOC(=O)n1ccn(C)c1=S` [Carbimazole] displayed a cell viability of 1.07 ± 0.044.

Take `Cc1cc(NS(=O)(=O)c2ccc(N)cc2)no1` [Sulfamethoxazole]: the cell viability amounted to 0.936 ± 0.023.

The molecule `CC(C)(C)C(=O)C(Oc1ccc(Cl)cc1)n1ccnc1` (stereo unspecified) [Climbazole] came in with a cell viability of 1.08 ± 0.038.

`CC(C)N(CCCNC(=O)Nc1ccc(C(C)(C)C)cc1)C[C@H]1O[C@@H](n2cc(Br)c3c(N)ncnc32)[C@H](O)[C@@H]1O` yielded a cell viability of 0.9356 ± 0.0064.

Consider `CC1(C)S[C@@H]2[C@H](NC(=O)C(C(=O)O)c3ccccc3)C(=O)N2[C@H]1C(=O)O` (stereo partly specified) [Carbenicillin disodium], for which the cell viability is 1.02 ± 0.036.

The molecule `C=C[C@@]1(C)CC(=O)[C@]2(O)[C@@]3(C)[C@@H](O)CCC(C)(C)[C@@H]3[C@H](O)[C@H](OC(C)=O)[C@@]2(C)O1` [Forskolin] showed a cell viability of 0.942 ± 0.025.

The molecule `O=C(CCCCCN1C(=O)c2cccc3cccc(c23)C1=O)NO` [Scriptaid] came in with a cell viability of 0.901 ± 0.013.

Molecule `CCN(CC)C(=S)SSC(=S)N(CC)CC` [Disulfiram] displayed a cell viability of 0.264 ± 0.057.

`Cc1cc(OCCCS(C)(=O)=O)cc(C)c1-c1cccc(COc2ccc3c(c2)OC[C@H]3CC(=O)O)c1` displayed a cell viability of 1.08 ± 0.071.

With `COc1cc2/c(=N/c3ccc(Br)cc3F)nc[nH]c2cc1OCC1CCN(C)CC1` [Vandetanib (ZD6474)], the cell viability worked out at 1.01 ± 0.036.

With `O=c1cc(-c2ccccc2)oc2cc(O)cc(O)c12` [Chrysin], the cell viability is 1.05 ± 0.074.

The molecule `O=C(CCCCCCC(=O)Nc1ccccc1)NO` [Vorinostat (SAHA, MK0683)] yielded a cell viability of 1.02 ± 0.035.

In turn, `CC[C@H]1OC(=O)C[C@@H](O)[C@H](C)[C@@H](O[C@@H]2O[C@H](C)[C@@H](O[C@H]3C[C@@](C)(O)[C@@H](O)[C@H](C)O3)[C@H](N(C)C)[C@H]2O)[C@@H](CC=O)C[C@@H](C)C(=O)/C=C/C(C)=C/[C@@H]1CO[C@@H]1O[C@H](C)[C@@H](O)[C@@H](OC)[C@H]1OC` [Tylosin tartrate] gave a cell viability of 1.05 ± 0.057.

For the molecule `O=C(/C=C/c1ccc(O)c(O)c1)c1ccc(O)cc1O` [Butein], the cell viability came to 1.07 ± 0.06.

The molecule `COc1ccc(S(=O)(=O)Nc2cccnc2Nc2ccc(O)cc2)cc1` yielded a cell viability of 0.45 ± 0.013.

As to `O=C1NCCc2[nH]c(-c3ccncc3)cc21`, the cell viability came out at 0.761 ± 0.053.

In turn, `Cc1ccc(NC(=O)c2cccc(N(C)C)c2)cc1NC(=O)c1ccc(O)cc1` had a cell viability of 0.9655 ± 0.006.

The molecule `COC(=O)C1=C(C)NC(C)=C(C(=O)OC2CCCN(Cc3ccccc3)C2)C1c1cccc([N+](=O)[O-])c1` (stereo unspecified) [Benidipine HCl] had a cell viability of 1.02 ± 0.016.

The molecule `CCNC(=O)CCC/C=C\C[C@@H]1[C@@H](/C=C/[C@@H](O)CCc2ccccc2)[C@H](O)C[C@@H]1O` [Bimatoprost] gave a cell viability of 1.05 ± 0.047.

With `O=C(O)c1ccc2c(c1)nc(Nc1cccc(Cl)c1)c1ccncc12` [CX-4945 (Silmitasertib)], the cell viability was determined as 1.04 ± 0.036.

Molecule `CC1(C)O[C@@H]2C[C@H]3[C@@H]4CCC5=CC(=O)C=C[C@]5(C)[C@H]4[C@@H](O)C[C@]3(C)[C@]2(C(=O)CO)O1` [Desonide] displayed a cell viability of 0.947 ± 0.044.

Consider `NCCCCCNCC12CC3CC(CC(C3)C1)C2` [IEM 1754 dihydrobroMide], for which the cell viability worked out at 0.91 ± 0.019.
